We go through 1 molecule from patent publication US20240376639A1 (ELASMOGEN, published 2024).

The target in one test is T1, Human Serum Albumin (human, UniProt P02768).
T1 construct: Non-target control antigen in the ELISAs; also called HSA
Kind of test: binding ELISA on HSA coated control plate, detection with anti-HuFc-HRP. In general terms: ELISA stands for enzyme-linked immunosorbent assay.

A further test concerns the target T2, human TNF-alpha (human, UniProt P01375 partial chain).
T2 construct: also called TNFα; hTNF-alpha
Kind of test: SPRi (IBIS MX96); Quad-X amine coupled to the chip, human TNF-alpha passed over.

Sequence of human TNF-alpha (P01375 77-233 limits assumed): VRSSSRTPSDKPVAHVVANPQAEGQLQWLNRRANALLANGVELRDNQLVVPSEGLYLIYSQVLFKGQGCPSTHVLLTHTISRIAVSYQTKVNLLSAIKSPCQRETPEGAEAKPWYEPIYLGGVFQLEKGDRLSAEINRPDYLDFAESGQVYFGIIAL

B1: SoloMER D1-Fc-C4 (VNAR FW4) Quad-X (Fc fusion)
chain: ARVDQSPSSLSASVGDRVTITCVLRDSHCATSSTYWYRKKSGSTNEESISKGGRYVETVNSGSKSFTLTISSLQPEDFATYYCASECQYGLAEYDVYGGGTVVTVNGSGGGSGGGGSG[not shown - human IgG1 Fc with changes]GGGGSGGGGSGGGGSGGGGSGGGGSARVDQSPSSLSASVGDRVTITCVLRDSNCGLSSTYWYRKKSGSTNEESISKGGRYVETINEGSKSFSLRINDLTVEDSGTYRCKLSWWTQNWRCSNSDVYGGGTVVTVN
notes: also called soloMER Quad-X (VNAR FW4); soloMER Quad-X VNAR FW4
As usually defined, the Kd is the concentration at which binding is half-saturated. Regarding B1, the binding result with Human Serum Albumin is reported as “no binding (tested: 10 µg/mL)”. Besides, in the test with human TNF-alpha, the Kd was 809 pM.
